# Measurements published in the antibiotic and cytotoxicity screens of Wong et al. (2023).
# The other results are listed elsewhere or left out.
# Tested on: HSkMC (human skeletal muscle cells)
# Assay: cytotoxicity call (relative viability < 0.9)
# Conditions: 10 µM
row,SMILES,cytotoxicity call
1,C[C@H](CO)N1C[C@H](C)[C@@H](CN(C)C(=O)C2CCCCC2)Oc2ncc(C#CC3(O)CCCC3)cc2C1=O,inactive
2,C[C@@H]1CN([C@@H](C)CO)C(=O)c2cccc(NS(=O)(=O)c3cn(C)cn3)c2O[C@@H]1CN(C)CC1CC1,inactive
3,C[C@H]1CN([C@@H](C)CO)C(=O)c2cccc(NC(=O)C3CC3)c2O[C@@H]1CN(C)Cc1ccc(-c2ccccc2)cc1,inactive
4,C[C@@H]1CCCCO[C@H](CN(C)C(=O)C2CCCCC2)[C@@H](C)CN([C@@H](C)CO)C(=O)c2cc(NC(=O)c3ccccc3)ccc2O1,inactive
5,C[C@H](CO)N1C[C@H](C)[C@@H](CN(C)CC2CCCCC2)Oc2ccc(NC(=O)Nc3cccc4ccccc34)cc2CC1=O,inactive
6,C[C@H]1CN([C@@H](C)CO)C(=O)c2c(c3ccccc3n2C)-c2ccccc2CO[C@H]1CN(C)S(=O)(=O)c1ccc(Cl)cc1,inactive
7,COc1ccccc1S(=O)(=O)N[C@H]1CC[C@@H](CCNC(=O)C2CCOCC2)O[C@H]1CO,inactive
8,C[C@H](CO)N1C[C@H](C)[C@@H](CN(C)Cc2ccc(Cl)c(Cl)c2)Oc2c(NC(=O)C3CCCCC3)cccc2C1=O,inactive
9,COc1ccccc1OCC(O)CN1CCN(CC(=O)Nc2c(C)cccc2C)CC1.Cl.Cl (stereo unspecified),inactive
10,C[C@@H]1CCCCO[C@@H](CN(C)Cc2ccncc2)[C@@H](C)CN([C@H](C)CO)C(=O)c2cc(NC(=O)NC3CCCCC3)ccc2O1,inactive
11,O=C(C[C@@H]1CC[C@@H]2[C@H](COC[C@@H](O)CN2S(=O)(=O)c2cccc(F)c2)O1)NCCCN1CCOCC1,inactive
